# Experimental data reported in the supplement of paper PMC3334620.
# Over roughly 33,000 sequences, “E-score (-0.5 to 0.5)” has its median near -0.012; the highest 2% begin near 0.29. The list shows a part of the results.
# Target: T1, Ybr033w (UniProt P38073)
# T1 sequence: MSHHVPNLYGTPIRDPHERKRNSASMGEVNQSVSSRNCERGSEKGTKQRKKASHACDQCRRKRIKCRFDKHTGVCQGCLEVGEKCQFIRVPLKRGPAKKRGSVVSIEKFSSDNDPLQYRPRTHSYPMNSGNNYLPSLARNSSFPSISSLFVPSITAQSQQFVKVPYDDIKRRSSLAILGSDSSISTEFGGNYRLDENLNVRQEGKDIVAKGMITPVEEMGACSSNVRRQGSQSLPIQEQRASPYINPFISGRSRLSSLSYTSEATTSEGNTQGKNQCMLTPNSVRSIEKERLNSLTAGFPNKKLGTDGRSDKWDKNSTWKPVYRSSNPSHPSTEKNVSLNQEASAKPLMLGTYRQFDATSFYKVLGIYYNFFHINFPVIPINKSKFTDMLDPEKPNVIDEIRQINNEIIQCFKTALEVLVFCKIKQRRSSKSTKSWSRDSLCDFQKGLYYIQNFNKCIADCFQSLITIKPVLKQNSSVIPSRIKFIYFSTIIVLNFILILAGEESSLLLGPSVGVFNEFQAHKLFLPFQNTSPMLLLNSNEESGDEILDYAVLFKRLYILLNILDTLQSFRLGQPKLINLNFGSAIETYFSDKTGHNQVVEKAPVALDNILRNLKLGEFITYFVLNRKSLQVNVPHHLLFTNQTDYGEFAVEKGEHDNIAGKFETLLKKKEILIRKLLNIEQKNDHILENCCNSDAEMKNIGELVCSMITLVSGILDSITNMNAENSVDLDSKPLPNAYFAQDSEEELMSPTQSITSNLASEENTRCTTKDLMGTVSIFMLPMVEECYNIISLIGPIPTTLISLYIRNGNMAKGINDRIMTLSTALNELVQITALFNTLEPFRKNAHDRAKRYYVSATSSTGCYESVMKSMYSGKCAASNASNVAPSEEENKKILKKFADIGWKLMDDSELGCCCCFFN
# Test: PBM E-score (8-mer binding enrichment) (E-score (-0.5 to 0.5)); higher = stronger / more preferred TF binding; most listed sequences are background and not binding sites
# Conditions: protein concentration: 200 nM; construct: GST-full length
# How it was run: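 GST-tagged yeast TFs (full-length or DNA-binding domain) were made by PURExpress in vitro transcription/translation and applied at about 100-200 nM to universal all-10-mer Agilent arrays. The arrays were made double-stranded by primer extension, on fresh or once-stripped slides. Bound protein was detected with fluorescent anti-GST, and scans were normalised with masliner. Each ungapped eight-base word, pooled with its reverse complement, received an E-score (modified Wilcoxon-Mann-Whitney statistic) from the Universal PBM Analysis Suite.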
row,Sequence,PBM E-score
1,CGAGAGCG,-0.196
2,CAGGCGCG,-0.203
3,CCGCTCCG,-0.0118
4,ACTCGGAG,0.0528
5,GTTTACGA,0.0161
6,ACCCATAT,0.177
7,AACGATGA,0.0671
8,ACATTTAA,0.23
9,ACGATATG,0.119
10,GCCCGCAC,-0.0921
11,ATGTACGC,-0.147
12,CTGACTCC,-0.107
13,GCACGGTA,-0.136
14,ACGAGAAC,0.0954
15,CTCTTAAC,-0.0309
16,GCACTTCC,-0.149
17,GCAATCAC,-0.0161
18,AATGAGGC,-0.0498
19,ATTCCCAC,-0.022
20,AAAGGCGG,-0.0684
21,TAGGCAAA,0.0442
22,AATAGGTC,0.0419

row,Sequence,PBM E-score
1,ACCGATTA,0.0957
2,CTGATTGA,0.00921
3,AAACCACT,0.159
4,GCCCGGAC,-0.191
5,AATAGCGA,0.186
6,CCTCCGAA,-0.142
7,GAACAGGC,-0.125
8,AATACCTG,0.0872
9,ACTCGCTA,-0.0623
10,CGGGGAGC,-0.294
11,CGCACGAC,-0.227
12,ATTGCACA,0.156
13,GAGAAGTA,0.0419
14,ATAAGCGA,-0.0227
15,ACGCACAC,0.157
16,AGTGTGAT,0.113
17,CGTCACAG,-0.0478
18,CCTGTACC,-0.188
19,AATGAGAA,0.0586
20,CCGACAAC,-0.209
21,CCTGTCAC,-0.266
22,AGGTGGGC,-0.311

row,Sequence,PBM E-score
1,AACCGTTC,0.132
2,AGTCGAAT,-0.0612
3,ACCCACCT,-0.245
4,GTGAAGTA,0.0148
5,CCCGAGGG,-0.202
6,ATTTCGTC,0.135
7,TATAACAA,0.235
8,GCCTGGGA,-0.191
9,ACTGATCG,-0.0737
10,CATCGAAC,-0.0795
11,ACGGCAGA,-0.0336
12,AAACTACA,0.195
13,AACTTAGT,0.0819
14,ATCATGTG,0.126
15,CGGGATAC,-0.159
16,GGCTCCCC,-0.35
17,ATAATGCG,0.144
18,AGTTCCTA,0.152
19,ACAGAAGC,0.145
20,GCCATGGC,-0.238
21,CTCCCAGA,-0.301
22,ATACGAAC,0.128

row,Sequence,PBM E-score
1,GAGGGGGA,-0.411
2,AGCACCCA,-0.238
3,ACTCTACG,-0.0914
4,GAAGGACA,-0.0471
5,ACAGCGTA,0.0178
6,CAATCAAC,0.151
7,ACTTGTCG,0.0162
8,GGAAACCA,-0.309
9,GGCCTGAA,-0.204
10,AAATGTAA,0.234
11,AGTTTCTC,0.107
12,GTCGCGCA,-0.146
13,CTACCCAA,0.0675
14,CATGTCCA,0.135
15,CTACAAAG,0.0965
16,GATCAGAA,-0.186
17,AGTGACAG,0.153
18,ATACCCCG,-0.214
19,AAGGGCAA,-0.0518
20,CATTCAGC,0.135
